# The campaign covered roughly 310,000 compounds. About 2,200 (0.71%) showed an effect of 50% or more. Effects have a minus sign here. The list shows a part of the results.
# Target: human ether-à-go-go-related gene (hERG) potassium channel (human, UniProt Q12809)
# Assay: primary screen, population patch clamp on CHO cells stably expressing hERG
# Sequence of human ether-à-go-go-related gene (hERG) potassium channel (Q12809 whole entry, looked up): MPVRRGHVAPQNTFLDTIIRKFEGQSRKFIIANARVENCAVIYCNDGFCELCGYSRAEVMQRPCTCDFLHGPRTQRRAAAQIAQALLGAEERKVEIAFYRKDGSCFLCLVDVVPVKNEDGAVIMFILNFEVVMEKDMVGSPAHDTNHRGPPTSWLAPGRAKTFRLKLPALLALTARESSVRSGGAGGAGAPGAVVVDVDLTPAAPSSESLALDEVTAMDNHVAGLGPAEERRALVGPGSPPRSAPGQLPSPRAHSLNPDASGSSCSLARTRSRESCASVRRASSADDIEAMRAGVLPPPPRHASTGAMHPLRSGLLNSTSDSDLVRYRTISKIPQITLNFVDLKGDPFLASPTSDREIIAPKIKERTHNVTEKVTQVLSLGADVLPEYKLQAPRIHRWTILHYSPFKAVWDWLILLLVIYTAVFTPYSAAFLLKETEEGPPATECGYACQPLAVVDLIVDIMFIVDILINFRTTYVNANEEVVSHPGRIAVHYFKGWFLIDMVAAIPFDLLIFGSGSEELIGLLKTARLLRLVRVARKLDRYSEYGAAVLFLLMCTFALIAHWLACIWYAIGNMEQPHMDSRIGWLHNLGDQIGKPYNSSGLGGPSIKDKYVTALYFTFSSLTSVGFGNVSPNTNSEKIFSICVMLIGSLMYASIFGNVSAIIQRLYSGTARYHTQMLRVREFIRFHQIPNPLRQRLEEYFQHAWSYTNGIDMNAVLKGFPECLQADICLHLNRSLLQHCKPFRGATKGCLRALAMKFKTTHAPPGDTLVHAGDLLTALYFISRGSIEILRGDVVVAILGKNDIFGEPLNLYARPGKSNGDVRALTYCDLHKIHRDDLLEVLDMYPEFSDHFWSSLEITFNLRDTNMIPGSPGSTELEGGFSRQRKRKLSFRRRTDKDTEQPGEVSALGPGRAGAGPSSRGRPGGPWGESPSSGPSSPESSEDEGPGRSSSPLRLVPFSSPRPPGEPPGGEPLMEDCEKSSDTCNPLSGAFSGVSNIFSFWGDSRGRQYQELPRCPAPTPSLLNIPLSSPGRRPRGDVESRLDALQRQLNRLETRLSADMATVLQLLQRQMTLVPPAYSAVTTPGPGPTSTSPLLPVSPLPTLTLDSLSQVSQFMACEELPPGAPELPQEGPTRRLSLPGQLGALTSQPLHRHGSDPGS
row,SMILES,"hERG current change (%, negative = inhibition) at 1uM [%]"
1,O=C(NCC1CCCO1)c1cc(-c2ccccc2)nc2ccccc12 (stereo not shown),6.61
2,CCCCOc1ccc(C(=O)N/N=C/c2ccc(OCCN3CCCCC3)c(OC)c2)cc1,-4.69
3,C=C(C)CNC(=O)c1ccc(OC2CCN(C(=O)COC)CC2)cc1,13.3
4,CC(=O)Nc1cc2nn(-c3ccccc3)nc2cc1C,13.1
5,O=C(Cc1ccccc1F)Nc1nc2ccccc2[nH]1,0.695
6,O=C(CSc1ccc2nnc(-c3ccccn3)n2n1)Nc1ccc(F)cc1F,-1.28
7,COc1cc(NC(=O)CSc2nc3cc(C)ccc3cc2C)c(C(=O)O)cc1OC,2.36
8,O=C1C2C3C=CC(C3)C2C(=O)N1c1n[nH]c(-c2cccnc2)n1 (stereo not shown),11.8
9,Cc1ccc(C(=O)N2CCC(C(=O)NCc3cccnc3)CC2)cc1,2.44
10,C=CCc1cccc2cc(C(=O)N(C)C)c(=O)oc12,7.52
11,COc1cccc(NS(=O)(=O)c2c(C)cc(C)cc2C)c1,5.14
12,Cc1cc2cc3c(cc2nc1SCC(=O)OC(C)C)OCCO3,12
13,COc1ccc(C)cc1N(CC(=O)N1CCCC1)S(=O)(=O)c1ccccc1,19.1
14,Cc1ccc2c(c1)C1CC(C)(O2)N(c2cccc(C(=O)NC3CCN(Cc4ccccc4)CC3)c2)C(=O)N1 (stereo not shown),13.7
15,CCN(CC)C(=O)CSc1nc2ccccc2n1CC(=O)N1CCN(c2ccccc2OC)CC1,5.29
16,Nn1c(SCC(=O)Nc2nccs2)nnc1-c1cccnc1,1.85
17,Cc1ccc(CN2CCc3[nH]c(=S)[nH]c(=O)c3C2)cc1,14.5
18,CCOc1ccc(Cl)cc1S(=O)(=O)NCc1ccccn1,4.87
19,CCn1c(CC(=O)Nc2ccc(C)cc2)nnc1SCC(=O)N1CCOCC1,-9.11
20,Clc1cccc(-c2nn3c(Cn4cnc5ccccc54)nnc3s2)c1,-8.98
21,CC1(c2ccc([N+](=O)[O-])c(CS(=O)(=O)c3ccccc3)c2)OCCO1,12.8
22,Cc1cccc(N2CC(C(=O)Nc3cccc(S(=O)(=O)N4CCCCC4)c3)CC2=O)c1C (stereo not shown),4.58

row,SMILES,"hERG current change (%, negative = inhibition) at 1uM [%]"
1,NS(=O)(=O)c1ccc(CNC(=O)c2cc(-c3ccccn3)nc3ccc(Cl)cc23)cc1,9.6
2,COc1ccc(-c2cc(C(=O)NCCCN3CCOCC3)on2)cc1OC,12.7
3,Cc1ncc(S(=O)(=O)c2ccccc2)c(-c2ccccc2Cl)n1,2.7
4,COc1ccc(O[C@H]2C=C[C@@H](c3ccccc3)O[C@@H]2CO/N=C/C[C@@H]2C=C[C@H](OC(C)=O)[C@@H](COC(C)=O)O2)cc1,8.21
5,O=C(Nc1ccc(Cl)cc1Cl)c1csc(-c2cccnc2)n1,8.29
6,Cc1ccccc1C(=O)c1c[nH]c(C(=O)NCC2CCCO2)c1 (stereo not shown),6.32
7,O=C(O)C1(c2ccccc2)CCC(Nc2ccccc2)C1 (stereo not shown),12.8
8,C=C(C)CSc1nnc([C@@H](NC(=O)OC(C)(C)C)C(C)CC)o1 (stereo partly shown),7.67
9,CCOC(=O)C1CCCN(CCC(=O)Nc2ccccc2C)C1.Cl (stereo not shown),11.3
10,Cc1cc(C)cc(C(=O)NCC(=O)N2CCN(c3cccc(Cl)c3)CC2)c1,6.19
11,O=S(=O)(NC1CCCCC1N1CCN(c2ccc(F)cc2)CC1)c1ccccc1 (stereo not shown),4.15
12,Cc1c(NC(=O)COc2ncnc3ccccc23)c(=O)n(-c2ccccc2)n1C,9.5
13,Clc1ccccc1Cn1c(/C=C/c2ccco2)nc2ccccc21,24
14,COC(=O)C(Cc1cnc(Cl)s1)(C(=O)OC)c1ccc([N+](=O)[O-])cc1,-7.03
15,COc1ccc(C(=O)NC2CC(C)(C)Cc3c2cnn3-c2ccccc2)cc1OC (stereo not shown),2.95
16,COCCCNC(=O)Cn1ccc(N)nc1=O,17
17,O=C(NC1CCCC1)c1cccc(NC(=O)c2ccco2)c1,11.6
18,Cc1cccc(C(=O)Oc2ccccc2C(=O)N2CCOCC2)c1,0.226
19,CC(C)(C)c1ccc(C(=O)N/N=C2\C3CN4CCN(C3)CC2(c2ccccc2)C4)cc1,7.35
20,COCCNC(=O)C(c1ccncc1)N(C(=O)c1sc(C)nc1C)c1cccc(C)c1 (stereo not shown),18.9
21,CCCC(=O)Nc1ccc(C(=O)NNC(=O)c2ccco2)cc1,19.3

# From publication PMC4336329 (PLoS ONE, 2015)
